Measured values from the supplement of paper PMC11417369.
This is one part of the list.

system: PfAP2-HC AP2 domain (GST-tagged); assay: gcPBM binding intensity (ln(normalized median fluorescence intensity)); higher = stronger DNA binding
Procedure, shortened: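 DNA-binding domains from P. falciparum, fused to GST and produced in E. coli, were put on an Agilent 4 × 180k double-stranded probe array for 1 h in 1× PBS holding 1% milk, 0.2 mg/ml BSA, 0.5% salmon testes DNA and 0.03% Triton X-100. Probes were primer-extended, 36 bp long and drawn from intergenic genomic regions, with negative controls included. After Alexa488 anti-GST antibody detection and a 488 nm scan, binding intensity was set as the highest Masliner-normalised natural-log median intensity across replicate spots of either probe orientation.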

| Sequence | gcPBM binding intensity (ln) |
| --- | --- |
| TGTTTATGTTTACATGTGCGCATTACAGAAAAAAAA [GTGCAC_site9669] | 9.54 |
| TATTTTTATTGGTGAATACACACGTATATATATATT [CACACA_site2401] | 9.83 |
| TTTTTATTTAAAAGTAGTACAAGGGTTATTATTAAC [XGTACX_site1555] | 9.34 |
| ACATGTATACTTTTTACGAAAAAAAAAAAAAAAAAA [CACACA_negctrl_site1638] | 9.04 |
| TTTTTTTTTTTTTTTGCACACTTAAATTTGGTGGGG [CACACA_site2344] | 9.85 |
| CACGCGCACGAACACACACACACACGCATATAAATA [CACACA_site7103] | 11 |
| ATATTATTTTATTTTTGTACAGATATCTTTAAAAAA [XGTACX_site3734] | 9.44 |
| TACAGATAAATATACATACATATATATATATATATA [XGTACX_negctrl_site182] | 9.55 |
| TTATTAAAAATGGTATGTACGCACATAATATATATA [XGTACX_site3230] | 9.83 |
| AACATCATCTCTCCACAACAACAAAAAAAAAAATAC [CACACA_negctrl_site311] | 9.62 |
| AATACATACATACATACATGCATATATATATATATA [TGCATGCA_site462] | 10.3 |
| AAAATTATATGTAATTGTACGGAATTATATACGCAA [XGTACX_site2048] | 9.69 |
| TCCTGTGGTTATATAACACACATTATTGCTTATAAG [CACACA_site6823] | 9.72 |
| TTTTTTAAAAATATTATCATCGTAACAAGAAATCGA [CACACA_negctrl_site1111] | 9.3 |
| GAACAAAAAAAAAATTGTACACAATTTTTTAAAATT [XGTACX_site4455] | 9.42 |
| ATGATTTATTATTATACACACAAAAAAAAAAAAGGA [CACACA_site264] | 9.82 |
| AATACATACATATATACATGCATACATATAAATATA [TGCATGCA_site674] | 9.74 |
| GCTTATAAGATATGCACACACAACACTTACAAAAAA [CACACA_site817] | 10.1 |
| AAACAAAAAAAATAAGCACACATATATATATATATA [CACACA_site8173] | 9.7 |
| ATTTTATGAAATGTTGCACACAAAAAACAACATGTT [CACACA_site8408] | 9.81 |
| TATATGATATAATATACACACATACATATATATATA [CACACA_site8066] | 9.84 |
| GAACAACAACAAAAAAAAAAAAAAAAAAAAAAAAAA [CACACA_negctrl_site199] | 8.96 |
| TAAATAAATATATGTACACACACAAATATATACATA [CACACA_site8577] | 10.3 |

| Sequence | gcPBM binding intensity (ln) |
| --- | --- |
| CTGAATTTTTATAACTGTACATATTTGATATAAAAA [XGTACX_site183] | 9.33 |
| ATGGGAAAAACATTCCGTACATACATACACATATAT [XGTACX_site8263] | 9.75 |
| ATATTTAATACAAATACACACACAAATATATACATA [CACACA_site9248] | 10.4 |
| ATATTGCTTATTTGATGTACGAATACACTAGTATTA [XGTACX_site4536] | 9.64 |
| ATACTAAATGAACACACACACATATAGATTTATAAC [CACACA_site6200] | 10.5 |
| TATCTGTATATGTGTACACATATTCTTAACTCACGC [CACACA_site4255] | 9.86 |
| TCACTTTTTATTAAATGTACATGCTTTCATTTTCAT [XGTACX_site8139] | 9.79 |
| TATATATATATATATGTACACACATCAATCATATTA [CACACA_site8594] | 9.75 |
| GAATAAATAATTAACACACACAATCTTTTTTTTTTT [CACACA_site3140] | 10.5 |
| AAAAAAAAAATAAAATAAAATATATTATATATATTA [GTGCAC_negctrl_site431] | 9.5 |
| CCACAGGATTGGTTCAAACACACATATTATATGACT [CACACA_site661] | 9.81 |
| TATTTTTTTTTTTTTTGTACACATAATTGTAATCGT [XGTACX_site8415] | 9.67 |
| CATATAAAAATGTGCACACACACACCGATATATATT [CACACA_site4940] | 10.6 |
| TGTACGAGTCGTAGAGTGCAGTCTGGAGAAAAGTAC [GTGCAC_site9683] | 9.65 |
| TATATATATATATATACACACTTGTGCAGAATATTA [CACACA_site5257] | 9.79 |
| TATAAATGTGTATGCGCATGTAAAAATATAATTTAT [TGCATGCA_site750] | 9.78 |
| GTAAATAATAAACACCGTACATGGTATAATTCAATG [XGTACX_site3655] | 9.87 |
| AAATAAATAAATAGACGTACAAAAATATTATACATT [XGTACX_site6776] | 9.89 |
| AATAATGAAAAAATGAATAAAATTACTATATAATTC [XGTACX_negctrl_site457] | 9.63 |
| GATATGATGTGTTTGGTAGTTTTTGATGTTGGCATG [GTGCAC_negctrl_site506] | 9.73 |
| ACAAAAAATTAATGAGAAATGGAATAATAAGTTATA [GTGCAC_negctrl_site321] | 9.57 |
| GGATATTAATAAATATGTACATATGTAGATTTATTA [XGTACX_site554] | 9.8 |
| AAGAAAAAAAAAAAAACACACATATATATATATATA [CACACA_site2027] | 10.2 |

| Sequence | gcPBM binding intensity (ln) |
| --- | --- |
| ATATATAAATATATATGTACATAAATATATATCTTT [XGTACX_site6910] | 9.69 |
| TGTATACCTTAATATACACACATACCTATATTTATA [CACACA_site6746] | 9.8 |
| TATAAATAGAGGAAGCGTACATATATATATATATAT [XGTACX_site4993] | 10.2 |
| GAACTCATTACAAAGTGTACAAATTAAATAAATGGT [XGTACX_site3995] | 9.68 |
| TTTTTCTTATTTGGATTGCACTACATATATATATAT | 9.96 |
| AGGTGCTTAATATATACACACATACAGATATATATA [CACACA_site5552] | 9.8 |
| AAAATTTTTTGAAATAGTACTTTTTTATATATATAT [XGTACX_site2634] | 9.57 |
| ATAAGGTTACAACAAACACACAAAGGAATATACACA [CACACA_site7840] | 10.3 |
| TATAAATTTATATATGCATGTCAGAAAAAAAAGTAA [TGCATGCA_site414] | 9.61 |
| CAACAAAATAAACACACACACACAAACACAAAAAAA [CACACA_site5806] | 11.4 |
| GTGAGTGAAATATGCAAACACACACCCGAAAAATGT [CACACA_site3197] | 10.2 |
| TATGATTTTAATGAAACACACAATTTTATGTTAATA [CACACA_site311] | 9.56 |
| TATAAAGGTATACAAAGTACAAAATACATATATACT [XGTACX_site6431] | 9.81 |
| TAAAGTTTTTCCTATCTATATTTATATTATAAATGA [XGTACX_negctrl_site20] | 9.35 |
| TTTAATATTATTATTTTACACACTTTTTTCCTTTTA [CACACA_site8780] | 9.81 |
| CAAATAATATTATGAAGTACTTCAAATTTTGAAAGA [XGTACX_site2530] | 9.59 |
| TCTTATAAACTCTGCACACATAATATATTAAATGAG [CACACA_site1936] | 9.7 |
| AATATAGGTATATCCACACACATATTTATATTTATA [CACACA_site6867] | 10.1 |
| TGTGTATAAGTCACTTGTACTAGTAGTAAAAAAAAA [XGTACX_site4341] | 9.64 |
| TAATATATGTTATATACACACATATAAATATAAATA [CACACA_site6339] | 9.67 |
| TGAAGTATAATTTATCTAATATGTTATATTTTATTT [TGCATGCA_negctrl_site56] | 9.55 |
| ATATTAATTTCTCATGCATGTTCTACCCAATTGTAA [TGCATGCA_site355] | 9.73 |
| AAAAAAAAAAAAAATTCACACAAGACTACTACATTT [CACACA_site4195] | 9.78 |

| Sequence | gcPBM binding intensity (ln) |
| --- | --- |
| TTTTGTTATTATGAAGTGCATTTATGTTCATGTCTA | 9.68 |
| AAAATCTAATATAATGCACACATAAAAAAAAATCAA [CACACA_site9211] | 9.82 |
| ACCCTTTTATATAAGAGTACAAACGTATTATTAAAT [XGTACX_site2221] | 9.52 |
| AATATTAAAAACAAAACACACAAAAAAAAATAAAAT [CACACA_site702] | 10.1 |
| ATATATGACTAATAAAGTACATACTTCATATAATTA [XGTACX_site6699] | 9.7 |
| TATATTATATATATACTGCACTGTTTTACAAAATTA | 9.63 |
| AACGTGTATTTATATTGTACACATTCATACATCAAA [XGTACX_site3644] | 9.64 |
| GTAGTGGTTGAATATACACACATATATATATATATA [CACACA_site2651] | 9.73 |
| AGATAATAGGTTACTTGTACATATAAATAAATATAT [XGTACX_site158] | 9.65 |
| CTTGTCATTTGGCACACACACATGTATAGGTTATTA [CACACA_site5656] | 10.2 |
| TATATAAATAAACACACACACACCTTATAATTATTA [CACACA_site9345] | 10.5 |
| AACAGATAATATAAAAAAAAAAAAAAAAATAATTAA [GTGCAC_negctrl_site69] | 9.48 |
| TTTTAGTTATTGTATTATTATTAATATATAATATCT [CACACA_negctrl_site1528] | 9.7 |
| CTAAAATGTAAAAACGCACACATAATATTATAAAAA [CACACA_site2788] | 10.1 |
| AAAGCATGTTAATATGTATAAATACTGATCATTCAC [GTGCAC_negctrl_site576] | 9.7 |
| TTTTTTTTTTATTAATGTACAAGATATATAATGTTA [XGTACX_site4809] | 9.44 |
| TATAATATAAAAATGAGTACATAGATAATAATATTT [XGTACX_site2376] | 9.82 |
| TATATAGTAAATATTTGTACATAATAAAATATATGT [XGTACX_site7873] | 9.77 |
| ATATTTTATTATATAGGTACACATAATTTCATGTAA [XGTACX_site415] | 9.5 |
| ATCTTAATTTTTGAAGGTACACACTAATATATTAAA [XGTACX_site2292] | 9.58 |
